# Results as given in PubChem BioAssay AID1477 (National Center for Advancing Translational Sciences (NCATS), 2009).
# Among all 230,000 compounds or so, fewer than 10 were called active. This list was built around the results that the source calls inconclusive (neither active nor inactive); the mix of calls is not that of the screen. The call rests on the fitted dose curve; in most records, active means well fitted curve in the direction sought with a large enough effect; inconclusive means small, poorly fitted or top-dose-only effect, or effect the other way, or another doubt; inactive means no such curve, though single readings can be large or run the other way. No potency is given beside an inconclusive call; the fits are too rough.
# Molecular target: Runt-related transcription factor 1 (Homo sapiens) + Core-binding factor subunit beta (Homo sapiens) (UniProt Q01196+Q13951)
# Chain of UniProt Q01196 (Q01196 whole entry, looked up): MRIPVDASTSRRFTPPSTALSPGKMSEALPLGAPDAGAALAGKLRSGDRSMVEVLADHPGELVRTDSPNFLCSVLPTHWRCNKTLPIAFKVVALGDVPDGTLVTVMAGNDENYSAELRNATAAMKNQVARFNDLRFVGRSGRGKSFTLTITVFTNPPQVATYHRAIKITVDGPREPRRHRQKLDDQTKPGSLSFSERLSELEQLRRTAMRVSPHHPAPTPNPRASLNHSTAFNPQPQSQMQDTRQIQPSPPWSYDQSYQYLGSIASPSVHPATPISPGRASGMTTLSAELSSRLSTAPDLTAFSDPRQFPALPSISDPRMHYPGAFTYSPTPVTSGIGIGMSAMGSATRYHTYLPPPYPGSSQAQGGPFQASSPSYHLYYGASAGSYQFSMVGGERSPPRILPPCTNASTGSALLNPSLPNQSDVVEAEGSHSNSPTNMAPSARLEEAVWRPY
# Chain of UniProt Q01196 (Q13951 whole entry, looked up): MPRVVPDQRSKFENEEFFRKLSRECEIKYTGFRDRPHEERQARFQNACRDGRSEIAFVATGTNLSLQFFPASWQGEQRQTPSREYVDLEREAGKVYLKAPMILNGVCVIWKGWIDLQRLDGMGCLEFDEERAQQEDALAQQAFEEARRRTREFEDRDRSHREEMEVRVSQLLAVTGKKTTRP
# Test: qHTS Assay for Compounds Blocking the Interaction Between CBF-beta and RUNX1 for the Treatment of Acute Myeloid Leukemia; on activity, negative = inhibition: % of control where 0% means no effect
# Conditions: AlphaScreen CBFb-His/RUNX1-biotin binding, biochemical; activity, negative = inhibition: at 59.8 µM (top of the series) unless noted
# How it was run: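 Proteins preincubated together for 20 min at RT before compound addition; 15 min later, nickel and streptavidin beads were added and left 90 min prior to AlphaScreen measurement.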
Structure (SMILES),Potency,"activity, negative = inhibition"
O=C(NC(=O)N1CCN(c2ccc(F)cc2)CC1)c1ccccc1,"inconclusive [activator, full curve, poor fit]",
S=c1oc(-c2ccncc2)nn1CCc1ccncc1,"inconclusive [inhibitor, partial curve]",
CNC(=S)N/N=C/c1ccc(-c2ccc(Cl)c([N+](=O)[O-])c2)o1,"inconclusive [inhibitor, single point]",
CCCCCCCC/C=C/CCCCCCCCOP(=O)([O-])OCC[N+](C)(C)C,"inconclusive [inhibitor, single point]",
O=C(Nc1nc2ccc(S(=O)(=O)N3CCCC3)cc2s1)C1CCCCC1,"inconclusive [activator, single point]",
O=[N+]([O-])c1cc(Cl)ccc1-c1nc(-c2ccccc2)no1,"inconclusive [inhibitor, single point]",
O=C(CC12CC3CC(CC(C3)C1)C2)NC(=S)NCc1ccco1,"inconclusive [inhibitor, single point]",
CCOC(=O)c1c(/N=C/c2c(O)n(-c3ccc(F)cc3)c(=S)[nH]c2=O)sc2c1CCCC2,,inactive: 1.07%
Cc1cc(C)cc(NCc2cc3c(cc2[N+](=O)[O-])OCO3)c1,"inconclusive [inhibitor, single point]",
COc1ccc(CCNc2nc(-c3sc(C)nc3C)cs2)cc1OC,"inconclusive [inhibitor, single point]",
O=S(=O)(Nc1nc2c(s1)CCCC2)c1ccc2ccccc2c1,,inactive: -12.6%
COc1cc(/C=C/c2cc(OC(C)=O)c3ccccc3n2)c(OC(C)=O)c([N+](=O)[O-])c1,,inactive: -2.02%
N#CC1=C(S)N=C(N)C(c2nc(-c3ccccc3)cs2)C12CCCCC2 (stereo not drawn),"inconclusive [inhibitor, partial curve]",
CC(/C=N/NC(=O)Cc1cccn1C)=C\c1ccco1,"inconclusive [inhibitor, single point]",
COc1ccc(C2CC(c3cccs3)=NN2c2ccc(F)cc2)cc1OC (stereo not drawn),"inconclusive [activator, partial curve]",
Cc1oc2cc([N+](=O)[O-])c(O)c([N+](=O)[O-])c2c1C(=O)c1ccc(Cl)cc1,"inconclusive [inhibitor, single point]",
CCOc1[nH]n(-c2ccccc2)c(=O)c1C=Nc1ccc(OC)cc1,"inconclusive [inhibitor, single point]",
C=C(C)C(=O)N1CC2(CC(c3cccc(NC(=O)/C=C\C)c3)=NO2)C[C@H]1C(N)=O (stereo partly drawn),"inconclusive [inhibitor, single point]",
Cc1nc2cc(-c3ccsc3-n3c(C)ccc3C)[nH]n2c(=O)c1Cl,"inconclusive [inhibitor, partial curve]",
N#C/C(=C(/O)c1cccs1)c1nnc2n1CCCCC2,,inactive: 9.58%
O=C(NNc1cc(Br)c(O)c(Br)c1)c1ccccc1,,inactive: -3.63%
CC(OC(=O)CCC(=O)c1cccs1)C(=O)Nc1ccccc1[N+](=O)[O-] (stereo not drawn),"inconclusive [inhibitor, partial curve]",
CC12CCC(C/C1=N/O)C2(C)CBr (stereo not drawn),,inactive: 7.98%

Structure (SMILES),Potency,"activity, negative = inhibition"
CCOC(=O)c1sc(NC(=O)c2sccc2C)cc1C,,inactive: 6.72%
CCc1nnc(NS(=O)(=O)c2ccc(N/C=C\C(=O)c3cccc4ccccc34)cc2)s1,"inconclusive [inhibitor, single point]",
CCOC(=O)c1nn(-c2ccc(Cl)cc2Cl)c(=N)c(C#N)c1C,"inconclusive [inhibitor, single point]",
COC(=O)C1=C(C)N(c2cc(C)cc(C)c2)/C(=C/c2ccco2)C1=O,"inconclusive [inhibitor, single point]",
COc1ccc(NC(=S)Nc2cccc([N+](=O)[O-])c2)cc1,,inactive: -6.02%
CCN(CC)c1ccc(/C=N\N2CCN(Cc3ccc(C)cc3)CC2)cc1,"inconclusive [inhibitor, partial curve]",
CN(C)S(=O)(=O)c1cccc(-c2csc(N/N=C/c3ccco3)n2)c1,"inconclusive [inhibitor, partial curve]",
CN(C)c1ccc(/C=C2/C(=O)Nc3ccccc32)cc1,"inconclusive [inhibitor, partial curve, poor fit]",
c1csc(-c2noc(COc3ccc4c(c3)CCCC4)n2)c1,"inconclusive [activator, partial curve]",
Clc1ccccc1-c1ncc2ccccn12,,inactive: -12.1%
CC1COC(Cn2c3ccccc3c3ccccc32)O1 (stereo not drawn),"inconclusive [activator, single point]",
COc1cc(Cl)c(S(=O)(=O)N2CCCC2)cc1Cl,,inactive: -1.5%
CC1CC1C(=O)Nc1nc(-c2ccccn2)cs1 (stereo not drawn),"inconclusive [inhibitor, single point]",
COC(=O)C1C=C2c3cccc4[nH]cc(c34)CC2N(C)C1 (stereo not drawn),"inconclusive [inhibitor, full curve, poor fit]",
CCOc1ccc(NC(=O)COC(=O)C2(C)CC2(Cl)Cl)c([N+](=O)[O-])c1 (stereo not drawn),"inconclusive [inhibitor, single point]",
O=C(NC1CCCC1)c1cc2nc(-c3ccccc3)cc(-c3ccccc3)n2n1,"inconclusive [activator, partial curve]",
CCOC(=O)c1sc2cc([N+](=O)[O-])cc(SCC(=O)OC)c2c1N,"inconclusive [inhibitor, single point]",
COCCN(CCOC)S(=O)(=O)c1ccc(C(=O)Nc2nnc(C)o2)cc1,"inconclusive [inhibitor, partial curve]",
CC(=O)c1ccc(N=Nc2ccc(N(C)C)cc2)cc1,,inactive: -9.33%
Brc1c(-c2ccccc2)nc2n1Cc1ccccc1-2,"inconclusive [inhibitor, single point]",
CCSc1nnc(NC(=O)CSC2=NCCS2)s1,"inconclusive [inhibitor, partial curve]",
Cc1cc(=O)[nH]c(SCC(=O)Nc2ccc(S(N)(=O)=O)cc2)n1,,inactive: -16.1%
CSc1ccc(Cl)c(C(=O)OCC(=O)N(C)CCC#N)c1,"inconclusive [inhibitor, single point]",

Structure (SMILES),Potency,"activity, negative = inhibition"
CCOC(=O)C1(CCOC)CCN(Cc2ccc(COC)o2)CC1,"inconclusive [activator, full curve, poor fit]",
COc1ccc(C(=O)/C=C/c2ccc(N3CCCCC3)c([N+](=O)[O-])c2)cc1,"inconclusive [inhibitor, partial curve]",
COc1ccc(OCC(=O)O/N=C(\N)Cc2ccc(Cl)cc2)cc1,"inconclusive [activator, single point]",
O=C(OCCN1C(=O)c2cccc3c(N4CCOCC4)ccc(c23)C1=O)c1ccc(Cl)cc1,"inconclusive [activator, single point]",
COc1cccc(OC)c1-c1nn2c(-c3ccco3)nnc2s1,,inactive: -10.4%
Cc1cc(C)c2[nH]c(=O)c(CN(Cc3cccs3)C(=S)NCc3ccco3)cc2c1,"inconclusive [inhibitor, single point]",
O=c1[nH]c2ccc(N=Cc3c(O)ccc4cc(Br)ccc34)cc2[nH]1,"inconclusive [inhibitor, partial curve, poor fit]",
O=c1c(-c2ccccc2)coc2cc(O)ccc12,"inconclusive [activator, full curve, poor fit]",
OC1(c2ccc(Cl)c(C(F)(F)F)c2)CCN(CCCC(c2ccc(F)cc2)c2ccc(F)cc2)CC1,"inconclusive [activator, single point]",
Cc1cc(N2CCCC2)ccc1/C=C1\NC(=S)N(C)C1=O,"inconclusive [inhibitor, single point]",
Cc1ccc(S(=O)(=O)Nc2cccc(CP(=O)(c3ccccc3)c3ccccc3)c2)cc1,,inactive: -2.14%
COc1ccc(/C=C/C2=CCN(C)CC2)cc1,,inactive: 2.86%
CCOC(=O)/C(C#N)=C\c1ccc(N2CCN(C/C=C/c3ccccc3)CC2)cc1,"inconclusive [activator, partial curve]",
O=c1/c(=C\c2cc([N+](=O)[O-])cc([N+](=O)[O-])c2O)sc2nc3ccccc3n12,"inconclusive [inhibitor, partial curve]",
CCn1c(C)cs/c1=N\C(=S)Nc1ccccc1C,"inconclusive [inhibitor, single point]",
Cc1nc(-c2ccc(-n3nncc3-c3ccco3)cc2)cs1,,inactive: -0.481%
CCN1CCCc2cc(CN(CCN3CCOCC3)C(=S)Nc3cccc(OC)c3)ccc21,"inconclusive [inhibitor, single point]",
COc1cc(Nc2nc(-c3ccccc3)c3cc(C)ccc3n2)cc(OC)c1OC,"inconclusive [inhibitor, single point]",
Cc1oc2c(c1C(=O)c1ccc(Cl)cc1)C(=O)C(=O)c1ccccc1-2,"inconclusive [inhibitor, partial curve]",
S=c1nc[nH]c2c1ncn2C1CCCC1,"inconclusive [inhibitor, single point]",
Cn1nc(-c2ccccc2)c(CSc2cccc(Cl)c2)c1Cl,"inconclusive [activator, single point]",
O=C(COC(=O)c1ccc(Cl)s1)c1cc2ccccc2o1,"inconclusive [activator, single point]",
